First the molecules themselves.
B1: CPEB3 Ribozyme (parent)
chain: UAACAGGGGGCCACAGCAGAAGCGUUCACGUCGCAGCCCCUGUCAGAUUCUGGUGAAUCUGCGAAUUCUGCUGUAUAUCUC

The source gives no read counts; variants with many changes may rest on few reads.

68 variants from the RNAGym collection of RNA variant scans (doi:10.1093/nar/gkz1192) can be followed below.

In the data set the parent is B1. Briefly: self-cleavage, relative activity (ratio to wild type); higher = more cleavage; in vitro, sequencing. The method, boiled down: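 After error-prone PCR and barcoding, CPEB3 ribozyme mutant libraries were transcribed with T7 RNA polymerase at 37°C for 5 hours, then given 15 min with DNase I before an EDTA stop, and they cleaved during both steps. Reverse transcription with template switching preceded Illumina sequencing. Relative activity divides a variant's cleaved/total read fraction by the unmutated ribozyme's. At least 5 reads were required per variant, and three batches were averaged.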
On to UAACAGGGGGCAACAGUAGAAGCGUUCACUUCGCAGCCCCUGUCGGAUUCUGGUGAAUCUGCGAAUUCUGCUGUAUUUCCC, for which the self-cleavage was found to be 0.22.

For the variant UAACAGGGGGCAACAGCAGAAGCGUUCACGUCGCAGCCCCCGUCAGAUUCUGGCGAAUCUGCGAAUUCUGCUGUAUAUCUC, the self-cleavage was 0.94.

For the variant UAACAGGGGGCGACAGCAGAAGCGUUCACGUCGCAGCCCCUAUCAGAUUCUGGUGAGACUGCGAAUUCUGCGCUAUAUCUC, the self-cleavage came to 0.03.

As for UAACAGGGGGCAACAGCAGUAGCGUUCACGUCGCAGCCCCUGUCAGGUUCUGGUGAAUCUGCGAAUUCAGCUGUAUAUCUC, the self-cleavage was 0.41.

In the case of UAACAGGGGGCUACAGCGGAAGCGUACACGUCGCAGCCCCUGUCAGAUCCUGGUGGAUCUGCGAAUUCUGCUGGUUAUCUC, the self-cleavage was 1.13.

Take UAACAGGGGGCAACAGCAGAAGCGUCCACGUCGCAGCCCCUGACAGAUUCUGGUGAAUCUGCAAAUUCUGCUGUGUAUCUC: the self-cleavage worked out at 0.17.

For the variant UAACAGGGGGCAACAGCAGAAGCGUUCACGACGCAGCCCCUGUCGGAUUCUGGUGAACCUGCGAAUUCUGCAGUAUAUCCC, the self-cleavage came to 0.14.

With UAACAGGGGGCAACAGCAGAAGCGUUGACGUCGCAGCCCCUGUCAGAUUCUGGUGGAUCUGCGAAUUCAGCUGUAUAUCUC, the self-cleavage worked out at 0.2.

On to UAACAGGGGGCGGCAGCAGAAGCGUUCACGUCGCAGCCCCUGUCAGAAUCUGGUAAAUCUGCGAAUUCUGCUGGAUAUCUC, for which the self-cleavage was 0.11.

As to UAACAGGGGGCGACAGGGGGAGCGCUCACGUCGCAGCCCCUGUCGGAUUCUGGUGAAUCAGCGAAUUCUGCUGUAUAUCUC, the self-cleavage was found to be 0.09.

As for UAACAGGGGGCGACAGCGGAAGCGUUCACGUCGCAGCCCCUGCCAGAUUCUGGUGAAUCUGCGAAUACUGCUGUAUAUCUC, the self-cleavage worked out at 0.06.

With UAACAGGGGGCAACAGCAGAAGCGUUCACGUCGCAGCCCUUGUCAGACUCUGGUGAAUCUGCGAAUUCUGCUGUAUACCUC, the self-cleavage is 0.11.

Turning to UAACAGGGGGCUACGGCAGAAGCGUCCACGUCGCAGCCCCUGUCAGGUUCUGGUGAAUCUGCGAAUUUUGCUGCAUAUCUC, the self-cleavage was found to be 0.32.

For UAACAGGGGGCGACAGCAGAAGCGCUCACGUCGCAGCCCCUGUCAGAUUCUGGUGAAUCUGCGAAUACUGCUGUAUAUCUC, the self-cleavage was found to be 0.17.

For the variant UAACAGGGGGCGACAGCAAAAGCGUUCACGUCGCAGCCCCUGUCAGAUUCUGGUGAAUCUGCGAAUCCCGCUGUAUAUCUC, the self-cleavage is 0.09.

Regarding UAACAGGGGGCAACAGCAGAAGCGUUCACGUCGCAGCCCCUGCCAGAUUCUGGUGAAACUGCGAAUUCUGCUGUAUAUCUC, the self-cleavage stood at 0.11.

UAACAGGGGGCAACAGCAGGAGCGUUCACGUCGCAGCCCCUGUCAGAUGCUGGUGAAUCUGCGAAUUCUGCUGUGUAUCUC: the self-cleavage is 0.47.

With UAACAGGGGGCUACAGCGGAAGCGUUCACGUCGCAGCCCCGGUCAUAUUCUGGUGAAUCUGCGAAUUCUGCUGUAUAUCUC, the self-cleavage is 0.09.

For the variant UAACAGGGGGCAACAGCAGAAGAGUUGACGUCGCAGCCCCUGUCAGAUUCUGGUGUUUCUACGUAUUCUGCUGUAUAUCUC, the self-cleavage worked out at 0.06.

Turning to UAACAGGGGGCGACAGCAGUAGCGUUCACGUCGCAGCCCCUGCCAGAUUCUGGUGAAUCUGCGAAUUCUGCUGCAUAUCUC, the self-cleavage came to 0.05.

Take UAACAGGGGGCGACGGCAGAAGCAUUCACGUCGCAGCUCCCGUCAGAUUCUGGUGAAUCUGCGAAUUCUGCUGUAUAUCUC: the self-cleavage was 0.09.

With UAACAGGGGGCGUCAGCAGAAGCGCUCACGUCUCAGCCCAUGUCAGAUUCUGGUGAAUCUGCGAAUUCAGCUGUAUAUCUC, the self-cleavage is 0.04.

Take UAACAGGGGGCAACAGCAGAAGCGUUCAUGUCGCAGCCCCCGUCAGAUUCCGGUGAAUCUGCGAAUUUUGCUGUAUAUCCC: the self-cleavage is 0.39.

With UAACAGGGGGCAACAGCAGAAGCGUUCACGUCGCAGCCCCUGUCAGAUUCAGGUGAAUCUGCGAACUCUGCUGUAUAUCUC, the self-cleavage was 0.4.

As to UAACAGGGGGCUACAGCGGCAGCGUUCACGUCGCAGCCCCCGUCAGAUUCUGGUGAACCUGCGAGUUCUGCUGUACAUCUC, the self-cleavage was found to be 0.07.

UAACAGGGGGCUACAGCCGACGCGUUCACGUCGCAGCCCCUGUCGGAUCCUGGUUAAUCUGCGAAUUCUGCGGUAUAUCUC: the self-cleavage was 0.04.

On to UAACAGGGGGCGACAGCAGAAGCGUUCACGUAGCAGCCCCAGUCAGAUUCUGGUGAAUCCGCGAAUUCUGCUGUAUAUCUC, for which the self-cleavage came out at 0.07.

Regarding UAACAGGGGGCUACGGCAGAAGCGUUCACGACGCAGCCCCUGCCAGAUUCCGGUGAAUCUGCGAAUUCCGCUGUAUAUCGC, the self-cleavage is 0.12.

As for UAACAGGGGGCGACAGCAGAAGCGUUCACGUCGCAGCCCCAGUCUGAUUCCGGCGAAUCUGCGAAUUCUGCUGUAUACCUC, the self-cleavage is 0.1.

Turning to UAACAGGGGGCGACAGCAGAAGCGUUCACGUCGCAGCCCCAGUCGGAUUCUGGUGAAUCUGCGAAUACUGCUGUAUACCCC, the self-cleavage came to 0.04.

Consider UAACAGGGGGCAACAGCAGAAGCGUUCCCGUCGCAGCCCCUGUCAGACUCUGGUGAAUCUGCGAAUUCUGCUGUAUACCUC, for which the self-cleavage turned out to be 0.3.

With UAACAGGGGGCAACAGCAGAAGCGUUCACGUCGCUGCCCCUGUCAGAUUCUGGUGAAUCUGCGAACUCUGCCGUACAACUC, the self-cleavage is 0.57.

For UAACAGGGGGCUACAGCCGAAGCGUUCACGUCGCGGCCCCUGUCAGGUCCUGGUGAAUCUGCGAAUUCUGCUGUAUAUCUC, the self-cleavage came to 0.1.

For UAACAGGGGGCUGCAGCAGAAGCGUUCGCGUCGCAGCCCCUGUCAGAUUCUGGUGAAUCUGCGAAUUCUGCUGUAUAUCUC, the self-cleavage came to 0.36.

For UAACAGGGGGCUUCAGCAGAGGCGUUCACGUCGCAGCCCCUGUCAGAUUCUGGUGUGUCUGCGAAUCCUGCAGUAUAUCUC, the self-cleavage was 0.17.

In the case of UAACAGGGGGCGGCAGCAGAAGCGUUCACGCCGCAGCCCCUGUCUGAUUCAGGUGAAUCUGCGAAUUCUGCUGUAUAUCGC, the self-cleavage was found to be 0.05.

Consider UAACAGGGGGCUACAGCGGAGGCGUCCACAUCGCAGCCCCUGUCAGAUUCUGGUGAAUCUGCGAAUUCUGCUGUAUAUCUC, for which the self-cleavage came to 0.43.

Turning to UAACAGGGGGCUACGGCAGGAGCGUUCACGCCGCAGCCCCUGUCAGAUCCUGGUGAAUCUGCGAAUUCUGCUGUAUAUCUC, the self-cleavage amounted to 0.02.

On to UAACAGGGGGCGACAGCAGAAGCGUCCGCGUCGCAGCCCCUGUCAGAAUCUGGUGAAUCUGCGAAUUCUGCUGUAUAUCUC, for which the self-cleavage amounted to 0.08.

UAACAGGGGGCAACAGCAGAAGCGCUCACGUCACAGCCCCUGUCGGAUUCUGGUGUAUCUGCGAAUUCUGCUGUAUAUCUC: the self-cleavage came to 0.09.

As for UAACAGGGGGCGACAGCAGAGGCAUUCACGUCGCAGCUCAUGUCAGAUUCUGGUGACUCUGCGAAUUCUGCUGUACAUCUC, the self-cleavage was 0.04.

As to UAACAGGGGGCAACAGCAGAAGCGUUCACGUCGCAGCCCCUGUCAGAUCCUGGUGAAUCUGCGAAUUCUGCUGAAUAUCAC, the self-cleavage is 1.08.

Consider UAACAGGGGGCGGCAGCAGAAGCGUUCGCGUCGCAGCCCCUGUCAGAUUCUAGUGAAUCUGCGAACUCUGCUGUAUAUCUC, for which the self-cleavage is 0.07.

For UAACAGGGGGCAACAGCAGAAGCGUUCACGUCGCAGCCCCUGUCAGAUUCUGGUGGACCUGCGAAUUCUGCUGUACACCUC, the self-cleavage is 0.2.

Consider UAACAGGGGGCGACUGCUGAAGCGAUCACGUCGCAGCCCCUGACAGAUUCUGGUUAAUCUGCGAAUUCUGCUGUAUAUCCC, for which the self-cleavage was determined as 0.03.

As to UAACAGGGGGCGGCAGCGGAAGCGUUCACGUCGCAGCCCCUGUCAGAUUCUGGUGAAUCUGCGAAUUUUGCUGUAUAUCCC, the self-cleavage was found to be 0.39.

On to UAACAGGGGGCUACAGCGGAAGCGUUCACGCCGCAGCCCCUGUCAGAUUCUGGUGAAUCUGCGAAUUCUGCUGUAUAUCUC, for which the self-cleavage turned out to be 0.34.

For UAACAGGGGGCAAAAGCAGAAGCGUUCACGUCGCAGCACCUGUCAGAUUCUGGUGAGUCUGCGAAUUCUGCUGUAUAUCUC, the self-cleavage is 0.37.

Take UAACAGGGGGCAACAGCAGAAGCGUUCACGCCGCAGCCCCUGUCAGAUUCUGGCGAAUCUGCGAAUUCUGCUGUAUAUCUC: the self-cleavage stood at 0.9.

On to UAACAGGGGGCAACAGCAGAAGCGUUCACAUCGCAGCCCCCGUCAGAUUCUGGUGAAUCUGCGAAUUCUGCUGUAUAUCUC, for which the self-cleavage is 0.19.

Consider UAACAGGGGGCAACAGCAGAAGCGUUCACGUCGCAGCCCCUGUCAGACUCUGGUGAAUCUGCGAAUUCUGCUGCAUACCUC, for which the self-cleavage was 0.75.

Regarding UAACAGGGGGCGACAGCAGAAGCGUUCACGUCGCAGCCCCUGGCAGAAUCUGGUGAAUCUGCGACUUCUGCUGUAUAUCAC, the self-cleavage was determined as 0.06.

In the case of UAACAGGGGGCGGCGGCAGAAGCGUUCACGUCGCAGCCCCUGUCAGAUUCAGGUGAAUCUGCGAAUUCUGUAGUAUAUCUC, the self-cleavage was found to be 0.07.

Consider UAACAGGGGGCAACAGCAGAAGCGUUCACGUCGCGGCCCCUGCCAGAUUCUGGUGAAUCUGCGAAUUCUGCUGUACGUCUC, for which the self-cleavage was determined as 0.5.

Consider UAACAGGGGGCAACAGCAGGAGCGUACACGUCGUAGCCCCUGUCAGAUCCUGGUGGAUCUGCGAAUUCUGCUGUAUAUCUC, for which the self-cleavage stood at 0.1.

As for UAACAGGGGGCAACAGCAGAAGCGUUCACAUCGCAGCUCAUGUCAGAUUCUGGUGACUCUGCGAAUCCUGCUGUAUAUCUC, the self-cleavage was 0.06.

For the variant UAACAGGGGGCGACAGCAGAAGCGUUCACGUCGCAGCCCCUGUCAGAUUCUGGUGGAUCUGCGAAUUCUGCUGUGUAUAUC, the self-cleavage worked out at 0.44.

UAACAGGGGGCAACAGCAGAAGUGUUCACGACGCGGCCCCAGUCAGAUUCUGGCGAAUCUGCGAAUUCUGCUGUAUAUCUC: the self-cleavage was 0.07.

UAACAGGGGGCGACAGCAGAGGCGUUCACGUCGCAGCCCCUGCCUGAUUCUGGUGAAUCUGUGAAUUCUGCUGUAUGUCAC: the self-cleavage is 0.04.

As for UAACAGGGGGCGACUGCAGAAGCGUUCACAUCGCAGCCCCUGUCAGAUUCUGGUGAAUCUGCGAAUUCUGCUGUAUAUCUC, the self-cleavage turned out to be 0.09.

In the case of UAACAGGGGGCAACAGCAGAAGCGCUCACGUCGCAGCCCCUGUCAGAUUCUGGUGAAUCUGCGUAUACGGCUGUAUAUCUC, the self-cleavage worked out at 0.15.

Take UAACAGGGGGCAACAGCAGAAGCGCUCACGUCGCAGCCCCUGUCAGUUUCUGGUGAAUCUCCGAAUUCUGCUGAAUAUCUC: the self-cleavage was 0.14.

As for UAACAGGGGGCAACAGCAGAAGCGCUCACGUCGCAGCCCCUGUCAGAUUCUGGUGAUUCUGUGAAUUCUGCUGUAUAUCUA, the self-cleavage was found to be 0.09.

On to UAACAGGGGGCUACAGCGGAAGCGUUCACGUCGCAGCCCCUGUCAGAUUCUGGUGAAUCUGCGAAUUCUGCUCUAUAUCUC, for which the self-cleavage came to 1.24.

Consider UAACAGGGGGCAACAGCAGAAGCGCUCACGUCGCAGCCCCUGUCAGAUACUGGUGAAUCUGCGAAUUCUGCUGUAUAUCUC, for which the self-cleavage was 0.34.

For UAACAGGGGGCAACAGCAGAAGCGUUGACGUCGCAGCCCCUGUCAGCUUCCGGUGAAUCUGCGAAUUCUGCUGUAUAUCCC, the self-cleavage was determined as 0.17.

Take UAACAGGGGGCGGCAGCAGAAGCGUUCACGUCGCAGCCCCUGUCAGAUUCUGGUGAAUCUGCGAAUUCUGCCGUAUAUCUC: the self-cleavage stood at 0.62.

Take UAACAGGGGGCGGCAGCAGAAGCGUUCACGUCGCAGCCCCUGUCUGAUUCUGGUGAAUCCGCGAAUUCUUCUGUAUAUCUC: the self-cleavage turned out to be 0.07.
